Data reported in the supplement of paper PMC8007513.
Where a name gives a salt, the structure may show the parent alone. ± gives the standard error. The campaign covered roughly 1,300 compounds. About 130 (10%) showed an effect of 50% or more. This is a selection; strong and weak results do not stand in their true shares.

Tested on: Trichoderma virens ATCC 9645
Assay: growth yield (OD600) with compound + IPBC relative to untreated control; higher = less growth inhibition
Details: compound concentration: 100 uM, IPBC concentration: 200 ng/ml
In short: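 A biocide at 200 ng ml^−1 was co-applied to some wells, and library compounds were present in all test wells at 100 μM final. The wells held 100 μl of Trichoderma virens ATCC 9645 spores at 15,000 spores ml^−1 in potato dextrose broth, grown at 30 °C in 96-well plates, with OD600 read at 40 h and 72 h. Results are relative growth against the control without either agent, averaged across duplicate screens.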

Compound	growth yield (40 h)	growth yield (72 h)
O=C(NCCN1CCOCC1)c1ccc(Cl)cc1 [Moclobemide] + CCCCNC(=O)OCC#CI [3-iodo-2-propynyl butylcarbamate (IPBC)]	81.6 ± 4.8%	89.7 ± 2%
CC(=O)CCCCn1c(=O)c2c(ncn2C)n(C)c1=O [Pentoxifylline] + CCCCNC(=O)OCC#CI [3-iodo-2-propynyl butylcarbamate (IPBC)]	85.3 ± 1.1%	91.87 ± 0.63%
CN1C(=O)OC(C)(C)C1=O [Trimethadione] + CCCCNC(=O)OCC#CI [3-iodo-2-propynyl butylcarbamate (IPBC)]	92.4 ± 1.6%	93.3 ± 1.1%
CN(C/C=C/c1ccccc1)Cc1cccc2ccccc12 [Naftifine hydrochloride] + CCCCNC(=O)OCC#CI [3-iodo-2-propynyl butylcarbamate (IPBC)]	13.2 ± 3%	50 ± 2.2%
CN[C@@H]1C[C@@H](c2ccc(Cl)c(Cl)c2)c2ccccc21 [Indatraline hydrochloride] + CCCCNC(=O)OCC#CI [3-iodo-2-propynyl butylcarbamate (IPBC)]	29.4 ± 4.9%	–
CC(C)NC[C@H](O)COc1cccc2ccccc12 [(S)-propranolol hydrochloride] + CCCCNC(=O)OCC#CI [3-iodo-2-propynyl butylcarbamate (IPBC)]	82.92 ± 0.64%	90.9 ± 2.2%
CC(C(=O)O)c1cccc(C(=O)c2ccccc2)c1 (configuration not stated) [Ketoprofen] + CCCCNC(=O)OCC#CI [3-iodo-2-propynyl butylcarbamate (IPBC)]	74 ± 0.95%	86.4 ± 1.5%
CCCC1O[C@@H]2C[C@H]3[C@@H]4CCC5=CC(=O)C=C[C@]5(C)[C@H]4[C@@H](O)C[C@]3(C)[C@]2(C(=O)CO)O1 (some centres not stated) [Budesonide] + CCCCNC(=O)OCC#CI [3-iodo-2-propynyl butylcarbamate (IPBC)]	82.44 ± 0.79%	89.4 ± 2.3%
Nc1nc2c(ncn2COCCO)c(=O)[nH]1 [Acyclovir] + CCCCNC(=O)OCC#CI [3-iodo-2-propynyl butylcarbamate (IPBC)]	100 ± 3.5%	101 ± 3.5%
CCCCCN(CCCCC)C(=O)C(CCC(=O)O)NC(=O)c1ccc(Cl)c(Cl)c1 (configuration not stated) [Lorglumide sodium salt] + CCCCNC(=O)OCC#CI [3-iodo-2-propynyl butylcarbamate (IPBC)]	85.5 ± 4.1%	85.5 ± 6.4%
CC(C)(C)NC(=O)[C@@H]1C[C@@H]2CCCC[C@@H]2CN1C[C@@H](O)[C@H](Cc1ccccc1)NC(=O)[C@H](CC(N)=O)NC(=O)c1ccc2ccccc2n1 [Saquinavir mesylate] + CCCCNC(=O)OCC#CI [3-iodo-2-propynyl butylcarbamate (IPBC)]	61 ± 1.6%	99.74 ± 0.94%
CC(=O)OCC(=O)[C@@]1(O)[C@H](C)C[C@H]2[C@@H]3CCC4=CC(=O)C=C[C@]4(C)[C@@]3(F)[C@@H](O)C[C@@]21C [Dexamethasone acetate] + CCCCNC(=O)OCC#CI [3-iodo-2-propynyl butylcarbamate (IPBC)]	96.3 ± 5.7%	97.6 ± 6.2%
COc1ccc(C(=O)c2ccccc2)c(O)c1 [Oxybenzone] + CCCCNC(=O)OCC#CI [3-iodo-2-propynyl butylcarbamate (IPBC)]	45.3 ± 4.9%	–
CCOC(=O)C1=C(C)NC(C)=C(C(=O)OCC)C1c1ccccc1/C=C/C(=O)OC(C)(C)C [Lacidipine] + CCCCNC(=O)OCC#CI [3-iodo-2-propynyl butylcarbamate (IPBC)]	92.4 ± 0.95%	91.98 ± 0.32%
CCOc1cc(CC(=O)N[C@@H](CC(C)C)c2ccccc2N2CCCCC2)ccc1C(=O)O [Repaglinide] + CCCCNC(=O)OCC#CI [3-iodo-2-propynyl butylcarbamate (IPBC)]	104 ± 7.3%	104 ± 4.8%
C#C[C@]1(O)CC[C@H]2[C@@H]3CCc4cc(O)ccc4[C@H]3CC[C@@]21C [Ethinylestradiol] + CCCCNC(=O)OCC#CI [3-iodo-2-propynyl butylcarbamate (IPBC)]	70.5 ± 1.3%	80.97 ± 0.21%
CCCCN(CCCC)CCC(O)c1cc2c(Cl)cc(Cl)cc2c2cc(C(F)(F)F)ccc12 (configuration not stated) [Halofantrine hydrochloride] + CCCCNC(=O)OCC#CI [3-iodo-2-propynyl butylcarbamate (IPBC)]	13.8 ± 0.16%	7.66 ± 1.1%
Nc1c2c(nc3ccccc13)CCCC2 [Tacrine hydrochloride] + CCCCNC(=O)OCC#CI [3-iodo-2-propynyl butylcarbamate (IPBC)]	100.5 ± 0.16%	100 ± 0.42%
CCN(CC)C(=S)SSC(=S)N(CC)CC [Disulfiram] + CCCCNC(=O)OCC#CI [3-iodo-2-propynyl butylcarbamate (IPBC)]	33.7 ± 3.8%	–
COc1ccc(CN2CCNCC2)c(OC)c1OC [Trimetazidine dihydrochloride] + CCCCNC(=O)OCC#CI [3-iodo-2-propynyl butylcarbamate (IPBC)]	85 ± 2.1%	91.87 ± 0.42%
